From article PMC4336329 (PLoS ONE, 2015)
The campaign covered roughly 310,000 compounds. About 2,200 (0.71%) showed an effect of 50% or more. Effects have a minus sign here. The list shows a part of the results.

These compounds were tested against human ether-à-go-go-related gene (hERG) potassium channel (human, UniProt Q12809) (assay: primary screen, population patch clamp on CHO cells stably expressing hERG).
Sequence of human ether-à-go-go-related gene (hERG) potassium channel (Q12809 whole entry, looked up): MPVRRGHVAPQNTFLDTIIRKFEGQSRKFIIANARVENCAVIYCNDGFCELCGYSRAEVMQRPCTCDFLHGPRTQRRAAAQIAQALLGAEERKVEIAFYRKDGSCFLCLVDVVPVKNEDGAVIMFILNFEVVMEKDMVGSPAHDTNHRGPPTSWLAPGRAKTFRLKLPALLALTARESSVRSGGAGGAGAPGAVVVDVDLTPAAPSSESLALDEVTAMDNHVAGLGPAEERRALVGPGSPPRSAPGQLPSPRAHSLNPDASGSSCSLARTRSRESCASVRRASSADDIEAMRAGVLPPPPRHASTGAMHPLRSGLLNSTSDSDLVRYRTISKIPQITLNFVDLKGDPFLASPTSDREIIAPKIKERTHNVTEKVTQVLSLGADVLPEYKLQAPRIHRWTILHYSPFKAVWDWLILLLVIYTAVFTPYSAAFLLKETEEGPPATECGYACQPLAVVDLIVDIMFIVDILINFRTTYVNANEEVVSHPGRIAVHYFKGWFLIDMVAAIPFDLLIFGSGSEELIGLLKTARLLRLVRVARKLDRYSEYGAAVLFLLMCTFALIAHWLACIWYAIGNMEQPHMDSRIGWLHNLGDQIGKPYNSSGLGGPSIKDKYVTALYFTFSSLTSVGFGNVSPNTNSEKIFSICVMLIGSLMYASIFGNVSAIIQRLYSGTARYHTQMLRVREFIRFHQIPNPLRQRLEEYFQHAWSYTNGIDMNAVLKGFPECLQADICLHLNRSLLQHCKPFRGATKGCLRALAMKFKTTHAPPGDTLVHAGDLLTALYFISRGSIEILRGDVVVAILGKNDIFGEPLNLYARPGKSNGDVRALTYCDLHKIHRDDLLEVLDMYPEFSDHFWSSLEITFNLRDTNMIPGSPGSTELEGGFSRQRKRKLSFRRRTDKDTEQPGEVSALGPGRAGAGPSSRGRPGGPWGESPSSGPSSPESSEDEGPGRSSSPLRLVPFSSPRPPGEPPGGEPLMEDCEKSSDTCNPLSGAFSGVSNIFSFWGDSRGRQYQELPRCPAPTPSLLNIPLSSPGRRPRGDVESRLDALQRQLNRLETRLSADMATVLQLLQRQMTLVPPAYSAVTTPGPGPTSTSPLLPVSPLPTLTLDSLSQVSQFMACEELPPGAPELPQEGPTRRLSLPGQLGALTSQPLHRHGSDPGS

Compound | hERG current change (%, negative = inhibition) at 1uM [%]
C/C(=N\NS(=O)(=O)c1ccc(Br)cc1)c1ccncc1 | 6.15
O=C(CNCc1ccc(F)cc1)Nc1ccc(C(=O)N2CCCCC2)cc1.O=C(O)C(=O)O | 11.1
Cc1cccc(NC(=O)c2cccc(N3C(=O)C4C5C=CC(C6CC56)C4C3=O)c2)c1 (stereo not shown) | 4.86
O=C(Nc1ccnc(-c2cccnc2)n1)c1ccc(F)cc1 | -3.14
O=C(CN1N=C(c2ccc(Cl)cc2)CCC1=O)NCc1cccs1 | 0.718
CC(=O)N1c2c(cc(Br)cc2S(=O)(=O)NCc2ccc(C)cc2)CC1C (stereo not shown) | -12.2
O=C(Cc1csc(NC(=O)Nc2cccc(Cl)c2)n1)NCc1ccccn1 | 8.02
Cc1cc2c(n1-c1ccc(Cl)cc1)CC(C)(C)CC2=O | -2.53
COc1ccc(-c2cc(=O)oc3cc4occ(C)c4cc23)cc1 | -5.04
Cc1cc(NS(=O)(=O)c2ccc(NC(=O)Cc3cccs3)cc2)no1 | 0.777
N#CC1(c2c(O)nc3n(c2=O)CCCS3)CCCCC1 | 11.9
CC(C)(C)c1cc(C(=O)NNc2cccc(Cl)c2)n(Cc2ccccc2)n1 | 12.8
COc1ccc(C(=O)NCCc2ccc(S(N)(=O)=O)cc2)cc1OC | -4.77
O=C(O)c1ccccc1SC1CC(=O)N(c2ccccc2)C1=O (stereo not shown) | -0.125
CCC(=O)NC(C)c1nc2ccccc2n1C (stereo not shown) | 10.6
Cc1cc(=O)oc2c(C)c(OC(C)C(=O)NCCN3CCOCC3)ccc12 (stereo not shown) | 19.3
COc1ccc(OCC(=O)N2CCN(C(=O)COc3ccccc3)CC2)cc1 | -24.7
O=C(COc1ccc(Br)cc1Cl)NC(=O)Nc1ccc2c(c1)OCCO2 | 2.79
Fc1cccc(CSc2ncnc3c2oc2ccccc23)c1 | 9.17
O=C(O)CS(=O)(=O)c1ccc(Oc2ccc(S(=O)(=O)CC(=O)O)cc2)cc1 | 6.57
O=C(NCc1cccc(C(F)(F)F)c1)C1CC(c2ccccc2C(F)(F)F)=NO1 (stereo not shown) | 2.14
O=C(N/N=C/c1ccc(F)c(F)c1)c1cc2c(s1)-c1ccccc1CC2 | 10.1
CCN(CC)CCNC(=O)c1cn(CC)c2ccc(S(=O)(=O)N3CCc4ccccc4C3)cc2c1=O | -5.47
NC(=O)c1cc([N+](=O)[O-])ccc1NCc1cccnc1 | 3.58
Cc1ccccc1NC(=O)CCc1c(C)nn(-c2ccc(N3CCOCC3)nn2)c1C | 6.68
CCOC(=O)c1csc(COc2ccccc2Cl)n1 | -9.93
CC1=C(C(=O)OCC(C)C)C2(O)C(=O)c3ccccc3C2(O)N1 (stereo not shown) | 9.25
COCc1nnc(NC(=O)c2ccc(S(=O)(=O)N3CCOCC3)cc2)o1 | 7.52

Compound | hERG current change (%, negative = inhibition) at 1uM [%]
COCCOC(=O)C1=C(C)N(c2ccccc2)C(=O)NC1c1cccc([N+](=O)[O-])c1 (stereo not shown) | 3.93
Cc1nnc(N2C(=O)C(=O)/C(=C(/O)c3ccc4c(c3)OCCO4)C2c2ccc(F)cc2)s1 (stereo not shown) | 13.2
COc1ccc(NC(=O)CCC(=O)c2cccs2)c(OC)c1 | 12.5
O=C(Nc1ccc(F)cc1F)c1ccc2ncsc2c1 | 13.7
COc1ccc(-c2csc3ncnc(N4CCN(c5ccccc5[N+](=O)[O-])CC4)c23)cc1 | 13.2
COc1ccc(NC(=O)[C@H](COCc2ccccc2)NC(=O)OC(C)(C)C)cc1 | 5.44
Cc1onc(-c2c(F)cccc2Cl)c1C(=O)NC1CCCCCC1 | 10.3
N#Cc1c(NC(=O)CCN2C(=O)c3ccccc3C2=O)oc(-c2ccccc2)c1-c1ccccc1 | 12.4
CC(C)n1c(Sc2nccn2C)nc2c1c(=O)n(C)c(=O)n2C | 1.05
Cc1cccc(C)c1NC(=O)CN1N=NC2C(=O)N(c3cccc(Cl)c3)C(=O)C21 (stereo not shown) | 2.39
OCCC1CN(Cc2cccc3nonc23)CCN1C1CCCCC1 (stereo not shown) | 20
COc1ccccc1CC(=O)Nc1ccccc1O | 18.1
COc1ccc(NC(=O)COC(=O)c2ccc(-n3cnnn3)cc2)c([N+](=O)[O-])c1 | 6.59
Cc1cc(C=C2C(=O)c3ccccc3C2=O)c(C)n1-c1ccc(C(=O)O)cc1 | 6.32
COc1ccc(NC(=O)COC(=O)Cc2c(F)cccc2Cl)cc1 | 14.1
CC(=O)CSc1nnc(Cc2ccc([N+](=O)[O-])cc2)o1 | 7.03
CC(NC(=O)CCCC1CCCCC1)c1ccc(S(N)(=O)=O)cc1 (stereo not shown) | 13.7
CN=c1scc(-c2ccccc2F)n1/N=C(\C)c1cccnc1 | 7.54
COc1ccc2cc3cc(C(=O)NCCN4CCN(c5ccccc5F)CC4)oc3nc2c1 | 4.99
CC(=O)N(CCc1ccccc1C)Cc1cc2cc3c(cc2[nH]c1=O)OCO3 | 10.1
CCOC(=O)[C@H]1[C@H]2COc3ccc(Cl)cc3[C@@H]2N2C(=O)c3cc(Br)ccc3NC(=O)[C@@]12C | 7.77
Cc1ccc(NC(=O)CSc2n[nH]c(-c3ccco3)n2)c(C)c1 | 4.49
CCC(=O)N(CCC(c1ccc(C)cc1)c1ccco1)Cc1ccco1 (stereo not shown) | 7.84
O=C1CCCc2ccccc2N1Cc1c(Cl)cccc1Cl | 4.79
Cc1cccc(-c2nc3ccccc3c3nncn23)c1 | 4.02
Cc1ccc(/C=C/C(=O)OCc2nc(N)nc(Nc3ccccc3C)n2)o1 | 10.5
O=C(Nc1c(C(=O)NCc2ccco2)cnn1-c1ccccc1)c1ccc(F)cc1 | 11.4
